From PubChem BioAssay AID588855 (National Center for Advancing Translational Sciences (NCATS), 2011)
Hit rate of the full screen: of about 410,000 compounds, about 5,000 (1.2%) were called active. The inconclusive results got no clear call from the source; some entries with a clear call stand among them for comparison. The call rests on the fitted dose curve; in most records, active means well fitted inhibition curve with a large enough effect; inconclusive means small, poorly fitted or top-dose-only effect; inactive means no such curve, though single readings can be large or run the other way. Where the call is inconclusive, the potency comes from a doubtful curve fit.

experiment: qHTS for Inhibitors of TGF-b; details: HepG2 CAGA-GFP TGF-b/SMAD3 reporter, GFP fluorescence, 18 h, TGF-beta stimulated, 500 pg/mL final; series mostly up to 46.1 µM; activity, negative = inhibition: at the top concentration; further: nearly all actives have a fitted effect of over 65% in size
Outline: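 Per well, imaged GFP fluorescence of HEPG2 CAGA-GFP cells gives the signal; cells get compound, then TGF-beta (500 pg/mL final), 18 h at 37 degrees C; %Activity versus -TGF-beta and +DMSO controls.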
On the % scale 0 is the no-effect control and ±100 the full control effect; potency means the concentration at half of the fitted maximal effect; tags describe the fitted curve by direction and shape.

Row | SMILES | Potency | activity, negative = inhibition
1 | O=C(NNc1ccccn1)c1ccc(Cl)nc1 | inconclusive: 5.62 µM [inhibitor, single point] | 
2 | CC(C)c1ccc2[nH]c(O)c(N=NC(=O)c3cccc(S(=O)(=O)Nc4ccccc4Cl)c3)c2c1 |  | inactive: 9.11%
3 | CCOC(=O)CNC(=O)CSc1ncnc2c1cnn2Cc1ccccc1 | inconclusive: 10 µM [inhibitor, partial curve] | 
4 | COc1cc(C(=O)O/N=C(\N)Cc2ccc([N+](=O)[O-])cc2)cc(OC)c1OC |  | inactive: 0.479%
5 | COc1ccccc1C(=O)Nn1cnc2ccccc2c1=O | inconclusive: 35.5 µM [inhibitor, single point] | 
6 | CCN(CC)C(=O)CSc1nc2ccsc2c(=O)n1Cc1ccccc1Cl | inconclusive: 15.8 µM [inhibitor, partial curve, poor fit] | 
7 | Cn1nnnc1Sc1ncnc2scc(-c3cc4ccccc4o3)c12 | active: 2.51 µM | 
8 | COc1cc(CNCc2ccccn2)ccc1OCc1ccc(Cl)cc1Cl | inconclusive: 35.5 µM [inhibitor, single point] | 
9 | O=C(CSc1ncnc2c1oc1ccccc12)OCc1ccccc1 | inconclusive: 5.62 µM [inhibitor, single point] | 
10 | Oc1ccc(Br)cc1CNc1cccc2cccnc12 | inconclusive: 25.1 µM [inhibitor, single point] | 
11 | Cc1ccc(C(=O)c2no[n+]([O-])c2C(=O)c2ccc(C)cc2)cc1 | inconclusive: 25.1 µM [inhibitor, single point] | 
12 | O=S1(=O)C=C(Oc2ccc3ccccc3c2)c2ccccc21 | inconclusive: 10 µM [inhibitor, partial curve] | 
13 | S=C(Nc1ccc(Cl)cc1)NC1CC2CCC(C1)N2Cc1ccccc1 (centres undefined) | inconclusive: 35.5 µM [inhibitor, single point] | 
14 | COc1ccc(N2CCN(C(=O)CCc3ccc(S(=O)(=O)NC(C)(C)C)cc3)CC2)cc1 | inconclusive: 35.5 µM [inhibitor, single point] | 
15 | CCCN1CCc2c(sc(NC(=O)c3ccc(S(=O)(=O)N(C)c4ccccc4)cc3)c2C(=O)NC)C1 |  | inactive: 40.7%
16 | CN1C(=O)C(C)(C)c2cc(S(=O)(=O)N3CCN(c4cccc(Cl)c4)CC3)ccc21 | inconclusive: 5.62 µM [inhibitor, single point] | 
17 | Oc1ccc(/C(Cc2ccccn2)=N\Nc2ccccc2)c(O)c1 | inconclusive: 35.5 µM [inhibitor, single point] | 
18 | CC(C)(C)C(=O)/C(=C/c1ccncc1)n1cncn1 | active: 4.47 µM | 
19 | CCN1CCN(c2nc(-c3ccccc3)c3ccccc3n2)CC1 |  | inactive: -22.6%
